Source: the supplement of paper PMC12217912
The list shows a part of the results. The full chains were built here from the parent and the listed change. Values near 0.05 are background.

B1: TEV protease; numbered along this chain (parent)
chain: MGESLFKGPRDYNPISSSICHLTNESDGHTTSLYGIGFGPFIITNKHLFRRNNGTLVVQSLHGVFKVKDTTTLQQHLVDGRDMIIIRMPKDFPPFPQKLKFREPQREERICLVTTNFQTKSMSSMVSDTSCTFPSGDGIFWKHWIQTKDGQCGSPLVSTRDGFIVGIHSASNFTNTNNYFTSVPKNFMELLTNQEAQQWVSGWRLNADSVLWGGHKVFMVKPEEPFQPVKEATQL

Variants of: B1
Experiment: raw area under fraction-flipped curve 0-4 h after induction (AUC4h, not background-subtracted), DNA-recorder readout of cleavage of the substrate (dimensionless); higher = more cleavage of the substrate by the protease variant
Conditions: temperature: 34 °C; time window: 0-4 h after rhamnose induction
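Further: Bxb1 expression induced with 0.2% (w/v) L-rhamnose at OD600 near 0.5, cultures sampled hourly, flipped fraction per protease–substrate barcode pair counted by paired-end Illumina sequencing.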

Row | Variant | area with substrate ENLYFES | area with substrate ENLYFGS | area with substrate ENLYFHS | area with substrate ENLYFIS | area with substrate ENLYFKS | area with substrate ENLYFMS | area with substrate ENLYFPS | area with substrate ENLYFRS | area with substrate ENLYFVS | area with substrate ENLYFWS | area with substrate ENLYFYS | area with substrate ENLYFFS | area with substrate ENLYFLS | area with substrate ENLYFNS | area with substrate ENLYFSS | area with substrate ENLYFTS | area with substrate ENLYFDS
1 | MGESLFKGPRDYNPISSSICHLTNESDGHTTSLYGIGFGPFIITNKHLFRRNNGTLVVQSLHGVFKVKDTTTLQQHLVDGRDMIIIRMPKDFPPFPQKLKFREPQREERICLVTTNFQTKSQSSMVSDTSCTFPSGDGIFWKHWIQTKDGQCGSPLVSTRDGFIVGIHSASNFTNTNNYFTSVPKNFMELLTNQEAQQWVSGWRLNADSVLWGGHKVFMVKPEEPFQPVKEATQL [M122Q] | 0.0519 | 0.0814 | 0.0566 | 0.0653 | 0.0675 | 0.0632 | 0.0774 | 0.0459 | 0.0482 | 0.0646 | 0.0638 | – | – | – | – | – | –
2 | MGESLFKGPRDYNPISSSICHLTNESDGHTTSLYGIGFGPFIITNKHLFRRNNGTLVVQSLHGVFKVKDTTTLQQHLVDGRDMIIIRMPKDHPPFPQKLKFREPQREERICLVTTNFQTKSMSSMVSDTSCTFPSGDGIFWKHWIQTKDGQCGSPLVSTRDGFIVGIHSASNFTNTNNYFTSVPKNFMELLTNQEAQQWVSGWRLNADSVLWGGHKVFMVKPEEPFQPVKEATQL [F92H] | 0.0488 | – | 0.0619 | 0.0541 | – | – | 0.0758 | – | 0.0383 | 0.0483 | – | – | – | – | – | – | –
3 | MGESLFKGPRDYNPISSSICHLTNESDGHTTSLYGIGFGPFIITNKHLFRRNNGTLVVQSLHGVFKVKDTTTLQQHLVDGRDMIIIRMPKDFPPFPQKLKFREPQREERICLVTTNFQTKSMSSMVSDTSCTFPSGDGICWKHWIQTKDGQCGSPLVSTRDGFIVGIHSASNFTNTNNYFTSVPKNFMELLTNQEAQQWVSGWRLNADSVLWGGHKVFMVKPEEPFQPVKEATQL [F140C] | 0.0545 | – | 0.0586 | 0.0535 | 0.0517 | 0.0559 | 0.0625 | 0.0729 | 0.0641 | 0.0492 | 0.0687 | 0.0621 | 0.0616 | 0.0731 | 0.0681 | 0.0645 | –
4 | MGESLFKGPRDYNPISSSICHLTNESDGHTTSLYGIGFGPFIITNKHLFRRNNGTLVVQSLHGVFKVKDTTTLQQHLVDGRDMIIIRMPKDFPPFPQKLKFREPQREERICLVTTNFQTKSMKSMVSDTSCTFPSGDGIFWKHWIQTKDGQCGSPLVSTRDGFIVGIHSASNFTNTNNYFTSVPKNFMELLTNQEAQQWVSGWRLNADSVLWGGHKVFMVKPEEPFQPVKEATQL [S123K] | 0.0639 | – | 0.0603 | 0.0482 | 0.0645 | 0.0644 | 0.0533 | 0.0501 | – | – | 0.0612 | 0.0572 | – | – | – | 0.0563 | –
5 | MGESLFKGPRDYNPISSSICHWTNESDGHTTSLYGIGFGPFIITNKHLFRRNNGTLVVQSLHGVFKVKDTTTLQQHLVDGRDMIIIRMPKDFPPFPQKLKFREPQREERICLVTTNFQTKSMSSMVSDTSCTFPSGDGIFWKHWIQTKDGQCGSPLVSTRDGFIVGIHSASNFTNTNNYFTSVPKNFMELLTNQEAQQWVSGWRLNADSVLWGGHKVFMVKPEEPFQPVKEATQL [L22W] | 0.0456 | – | 0.0499 | 0.0412 | – | 0.0124 | 0.0432 | 0.0278 | 0.0394 | 0.0397 | 0.0439 | 0.052 | 0.054 | 0.0479 | 0.0474 | 0.0521 | –
6 | MGESLFKGPRDYNPISSSICHLTNESDGHTTSLYGIGFGPFIITNKHLFRRNNGTLVVQSLHGVFKVKDTTTLQQHLVDGRDMIIIRMPKDFPPFPQKLKFREPQREERICLVTTNFQTKSMSSMVSDTSCTFPSGDGIFWKCWIQTKDGQCGSPLVSTRDGFIVGIHSASNFTNTNNYFTSVPKNFMELLTNQEAQQWVSGWRLNADSVLWGGHKVFMVKPEEPFQPVKEATQL [H143C] | – | – | 0.0616 | 0.0591 | 0.0634 | 0.0599 | 0.0726 | 0.0522 | 0.0623 | – | 0.0537 | 0.0716 | – | 0.0593 | – | 0.0454 | 0.0906
7 | MGESLFKGPRDYNPISSSICHLTNESDGHTTSLYGIGFGPFIITNKHLFRRNNGTLVVQSLHGVFKVKDTTTLQQHLVDGRDMIIIRMPKDFPPFPQKLKFRAPQREERICLVTTNFQTKSMSSMVSDTSCTFPSGDGIFWKHWIQTKDGQCGSPLVSTRDGFIVGIHSASNFTNTNNYFTSVPKNFMELLTNQEAQQWVSGWRLNADSVLWGGHKVFMVKPEEPFQPVKEATQL [E103A] | – | – | 0.0556 | 0.0587 | – | – | 0.0437 | – | – | 0.0502 | 0.037 | 0.0525 | 0.0646 | – | – | 0.0512 | –
8 | MMESLFKGPRDYNPISSSICHLTNESDGHTTSLYGIGFGPFIITNKHLFRRNNGTLVVQSLHGVFKVKDTTTLQQHLVDGRDMIIIRMPKDFPPFPQKLKFREPQREERICLVTTNFQTKSMSSMVSDTSCTFPSGDGIFWKHWIQTKDGQCGSPLVSTRDGFIVGIHSASNFTNTNNYFTSVPKNFMELLTNQEAQQWVSGWRLNADSVLWGGHKVFMVKPEEPFQPVKEATQL [G2M] | – | 0.064 | – | 0.0401 | 0.0212 | 0.0705 | 0.0628 | 0.0641 | 0.0885 | 0.0651 | – | 0.0649 | – | – | – | 0.0526 | –
9 | MGESLFKGPRDYNPISSSICHLTNESDGHTTSLYGIGFGPFIITNKHLFRRNNGTLVVQSLHGVFKVKDTTTLQQHLVDGRDMIIIRMPKDFPPFPQKLKFREPQREERICLVTTNFQTKSMSSMVSDTSCTFPSGDGIFWKHWFQTKDGQCGSPLVSTRDGFIVGIHSASNFTNTNNYFTSVPKNFMELLTNQEAQQWVSGWRLNADSVLWGGHKVFMVKPEEPFQPVKEATQL [I145F] | – | 0.0733 | – | 0.0642 | 0.0599 | 0.073 | 0.0555 | – | 0.0589 | – | – | 0.075 | – | – | – | – | –
10 | MGESLFKGPRDYNPISSSICHLTNESDGHTTSLYGIGFGPFIITNKHLFRRNNGTLVVQSLHGVFKVKDTTTLQQHLVDGRDMIIIRMPKDFPPFPQKLKFREPQREERICLVTTNFQTKSMSSMVSDTSCTFPSGDGIFWKHWIQTKDGQCGSPLVSTRDGFIVGIHSASNFTNTNNYFTSVPKNFMELLTNQEAQQWNSGWRLNADSVLWGGHKVFMVKPEEPFQPVKEATQL [V200N] | – | – | – | 0.0554 | 0.0665 | 0.0554 | 0.078 | – | – | – | – | – | 0.0525 | 0.0581 | 0.051 | 0.051 | 0.0554
11 | MGESLFKGPRDYNPISSSICHLTNESDGHTTSLYGIGFGPFIITNKHLFRRNNGTLVVQSLHGVFKVKDTTTLQQHLVDGRDMIIIRMPKDFPPFPQKLKFREPQREERICLVTTNFQTKSMSSMVSDTSCTFPSGDGIFWKHWIQTKDGQCGSPLVSTRDGFIVGIHFASNFTNTNNYFTSVPKNFMELLTNQEAQQWVSGWRLNADSVLWGGHKVFMVKPEEPFQPVKEATQL [S169F] | 0.046 | – | 0.0527 | 0.0584 | – | 0.0585 | 0.04 | 0.0673 | – | – | – | 0.0586 | – | 0.058 | – | 0.0753 | –
12 | MGESLFKGPRDYNPISSSICHLTNESDGHTTSLYGIGFGPFIITNKHLFRRNNGTLVVQSLHGVFKVKDTTTLQQHLVDGRDMIIIRMPKDFPPFPQKLKFREPQREERICLVTTNFQTKSMSSMVSDTSCTFPSGDGIFWKHWIQTKDGQCGSPLVSTRDGFIVGIHSASNFTNTNNYFTSVPKNFMELLTNQEAQQWVSGWRLNADSVLWGGHKVFCVKPEEPFQPVKEATQL [M219C] | 0.0663 | – | – | 0.0678 | 0.0573 | 0.092 | 0.0657 | 0.0651 | – | 0.0528 | 0.0537 | 0.0716 | 0.0634 | – | – | 0.0529 | 0.0534
13 | MGESLFKGPRDYNPISSSICHLTNESDGHTTSLYGIGFGPFIITNKHLFRRNNGTLVVQSLHYVFKVKDTTTLQQHLVDGRDMIIIRMPKDFPPFPQKLKFREPQREERICLVTTNFQTKSMSSMVSDTSCTFPSGDGIFWKHWIQTKDGQCGSPLVSTRDGFIVGIHSASNFTNTNNYFTSVPKNFMELLTNQEAQQWVSGWRLNADSVLWGGHKVFMVKPEEPFQPVKEATQL [G63Y] | – | 0.0516 | 0.0551 | 0.0546 | – | 0.0484 | 0.0522 | 0.0655 | 0.0697 | 0.0544 | 0.0454 | 0.0611 | 0.054 | – | 0.0866 | 0.0556 | –
14 | MGESLFKGPRDYNPISSSICHLTNESDGHTTSLYGIGFGPFIITNKHLFRRNNGTLVVQSLHGVFKVKDTTTLQQHLVDGRDMIIIRMPKDFPPFPQKLKFREPQREERICLVTTNFQTKSMSSMVSDTSCTFPSGDGIFWKHWIQTKDGQCGSPLVSTRDGFIVGIHSASNFTNTNNYFTSVPKNFMELLTNQEAQQWVSGWRLNADSVLWGGHKVFMVKPEEPFQPVKTATQL [E231T] | 0.07 | – | 0.065 | 0.0495 | 0.059 | 0.0732 | 0.0549 | 0.0643 | 0.0568 | 0.0646 | 0.0657 | 0.0782 | – | – | 0.0722 | 0.0486 | –
15 | MGESLFKGPRDYNPISSSICHLTNESDGHTTSLYGIGFGPFIITNKHLFRRNNGTLVVQSLHGVFKVKDTTTLQQHLVDGRDMIIIRMPKDFPPFPQKLKFREPQREERICLVTTNFQTKSMSSMVSDTSCTFPSGDGIFWKHWIQTKDGQCGSPLVSTRDGFIVGIHSASNFTNTNNYFTSVPKNFMELLTNQEAQQWVSGWRLNADSVLWGGHKVFMVKPEEPFQPVKHATQL [E231H] | 0.0588 | 0.0672 | 0.0583 | 0.0632 | 0.0632 | 0.067 | – | 0.0671 | – | – | 0.0394 | – | – | 0.0931 | 0.0552 | 0.0662 | 0.053
